Over roughly 1,000 compounds, “relative growth in counter assay (no AraC = 100%, AraC + DMSO = 0%)” has its median near -1.1; the highest 2% begin near 20. This is one part of the list.

The test system of the experiment is HEK293FT dCK*-only. The experiment can be described thus: relative growth in counter assay (no AraC = 100%, AraC + DMSO = 0%); higher = more growth rescue independent of IKZF1. The note with it: compound concentration: 5 uM; AraC concentration: 0.3 uM; overnight pretreatment + 4 days AraC. On the procedure: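 Growth recovery screen of the molecular-glue-like (Specs) library. HEK293FT cells expressing a dCK*-IKZF1 fusion (primary) or dCK* alone (counter) were pretreated overnight with compound at 5 uM, then given 0.3 uM AraC for 4 days. Hoechst nuclei were counted by imaging. Primary: normalised to pomalidomide (100%) and DMSO (0%), mean of 2 replicates. Counter: normalised to no-AraC (100%) and AraC+DMSO (0%), single replicate.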
For `COC(=O)C1(c2cccc(Nc3ncc(C)s3)n2)CCN(C(=O)C2CCCCC2)CC1`, the “relative growth in counter assay” value is -4.66%. As for `CCCc1cnc(Nc2cccc(C3(C(=O)OC)CCN(C(=O)C4CCCCC4)CC3)n2)s1`, the figure is -1.2%. To `Cc1cnc(Nc2cccc(C3(C(=O)O)CCN(C(=O)CC(C)(C)C)CC3)n2)s1` belongs -4.6%.

The values are drawn from the supplement of paper PMC12340641.
